The target of experiment [1] is T1, OSH1 fused with the GAL4 DNA binding domain (rice) (UniProt P46609).
T1 sequence: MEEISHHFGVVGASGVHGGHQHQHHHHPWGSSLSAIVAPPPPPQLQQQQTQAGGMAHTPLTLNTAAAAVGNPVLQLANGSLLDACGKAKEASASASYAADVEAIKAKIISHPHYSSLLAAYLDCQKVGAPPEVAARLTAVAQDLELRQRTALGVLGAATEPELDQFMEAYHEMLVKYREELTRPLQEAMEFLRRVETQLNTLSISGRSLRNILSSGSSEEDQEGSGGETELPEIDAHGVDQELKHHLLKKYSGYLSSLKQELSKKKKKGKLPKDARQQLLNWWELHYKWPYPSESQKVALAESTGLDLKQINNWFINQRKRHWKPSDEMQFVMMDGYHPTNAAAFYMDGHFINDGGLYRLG
Description: two-hybrid; SLR1 forms in pGADT7 (GAL4 AD), transcription factors in pGBKT7 (GAL4 BD); S. cerevisiae Y2HGold; screening on SD/-Leu/-Trp/-Ade/-His; three individual colonies.

Experiment [2] concerns the target T2, PCF1 fused with the GAL4 DNA binding domain (rice) (UniProt O23875).
T2 sequence: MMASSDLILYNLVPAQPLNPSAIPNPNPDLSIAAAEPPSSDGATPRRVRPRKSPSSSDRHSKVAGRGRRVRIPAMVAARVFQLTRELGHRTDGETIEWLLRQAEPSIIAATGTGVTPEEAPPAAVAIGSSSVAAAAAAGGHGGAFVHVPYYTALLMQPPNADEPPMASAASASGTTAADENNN
The experiment is described as above.

The target of experiment [3] is T3, YAB4 fused with the GAL4 DNA binding domain (rice) (UniProt Q6H668).
T3 sequence: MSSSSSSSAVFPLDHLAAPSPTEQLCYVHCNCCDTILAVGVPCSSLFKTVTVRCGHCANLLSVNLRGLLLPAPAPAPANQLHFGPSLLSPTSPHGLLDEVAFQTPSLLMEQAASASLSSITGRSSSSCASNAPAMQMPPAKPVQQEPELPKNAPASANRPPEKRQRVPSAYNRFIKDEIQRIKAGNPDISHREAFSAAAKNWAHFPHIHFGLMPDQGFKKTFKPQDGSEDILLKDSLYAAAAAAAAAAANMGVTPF
The experiment is described as above.

In experiment [4] the target is T4, bHLH089 fused with the GAL4 DNA binding domain (rice) (UniProt Q84T08).
T4 sequence: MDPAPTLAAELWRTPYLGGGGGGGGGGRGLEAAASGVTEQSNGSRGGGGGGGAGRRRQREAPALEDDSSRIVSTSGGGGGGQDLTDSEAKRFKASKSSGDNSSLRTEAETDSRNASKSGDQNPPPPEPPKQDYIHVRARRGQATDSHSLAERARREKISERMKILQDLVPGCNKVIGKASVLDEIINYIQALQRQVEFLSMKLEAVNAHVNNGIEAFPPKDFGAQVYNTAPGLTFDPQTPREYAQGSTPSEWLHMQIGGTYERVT
Described as above.

Experiment [5] concerns the target T5, bHLH094 fused with the GAL4 DNA binding domain (rice) (UniProt Q69WS3).
T5 sequence: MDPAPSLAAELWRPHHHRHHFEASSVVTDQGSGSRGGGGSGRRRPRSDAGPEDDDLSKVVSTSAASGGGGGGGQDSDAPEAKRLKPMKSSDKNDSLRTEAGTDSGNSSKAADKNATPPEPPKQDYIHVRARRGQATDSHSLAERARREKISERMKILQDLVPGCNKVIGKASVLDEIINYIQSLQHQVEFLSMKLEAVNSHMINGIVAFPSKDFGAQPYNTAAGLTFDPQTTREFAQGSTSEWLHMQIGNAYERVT
The description is as above.

Experiment [6] deals with T6, bZIP23 fused with the GAL4 DNA binding domain (rice) (UniProt Q6Z312).
T6 sequence: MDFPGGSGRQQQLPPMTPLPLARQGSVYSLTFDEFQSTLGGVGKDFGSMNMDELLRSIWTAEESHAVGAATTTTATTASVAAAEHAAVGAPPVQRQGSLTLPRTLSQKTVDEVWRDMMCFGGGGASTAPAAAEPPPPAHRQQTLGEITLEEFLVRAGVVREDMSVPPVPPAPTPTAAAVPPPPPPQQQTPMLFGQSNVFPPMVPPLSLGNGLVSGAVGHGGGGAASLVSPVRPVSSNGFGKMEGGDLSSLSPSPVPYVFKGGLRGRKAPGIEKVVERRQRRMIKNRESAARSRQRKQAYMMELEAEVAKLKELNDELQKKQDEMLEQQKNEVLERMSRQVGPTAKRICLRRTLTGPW
Described as above.

In experiment [7] the target is T7, OSH1 in YFC43 (BiFC) (rice) (UniProt P46609).
T7 sequence: T1 sequence
In words: split reporter; BiFC: SLR1 forms in YFN43, transcription factors in YFC43; co-infiltrated Nicotiana benthamiana leaves with P19; fluorescence microscopy 48-72 h after infiltration.

Experiment [8] has as its target T8, PCF1 in YFC43 (BiFC) (rice) (UniProt O23875).
T8 sequence: T2 sequence
The description is as above.

Experiment [9] addresses T9, YAB4 in YFC43 (BiFC) (rice) (UniProt Q6H668).
T9 sequence: T3 sequence
The description is as above.

Experiment [10] addresses T10, bHLH089 in YFC43 (BiFC) (rice) (UniProt Q84T08).
T10 sequence: T4 sequence
Described as above.

The target in experiment [11] is T11, bHLH094 in YFC43 (BiFC) (rice) (UniProt Q69WS3).
T11 sequence: T5 sequence
The description is as above.

For experiment [12], the target named is T12, bZIP23 in YFC43 (BiFC) (rice) (UniProt Q6Z312).
T12 sequence: T6 sequence
The description is as above.

These are yes or no findings as the source states them, for the method shown. For part of these data: In cells and extracts the contact can be indirect. Some entries that bind do so weakly or less than the wild type. For part of these data: Where a sequence is shown, tags or fusion partners need not be part of it.

B1: SLENDER RICE1 (SLR1) fused with the GAL4 activation domain (protein, UniProt Q7G7J6 1-625)
chain: MKREYQEAGGSSGGGSSADMGSCKDKVMAGAAGEEEDVDELLAALGYKVRSSDMADVAQKLEQLEMAMGMGGVSAPGAADDGFVSHLATDTVHYNPSDLSSWVESMLSELNAPLPPIPPAPPAARHASTSSTVTGGGGSGFFELPAAADSSSSTYALRPISLPVVATADPSAADSARDTKRMRTGGGSTSSSSSSSSSLGGGASRGSVVEAAPPATQGAAAANAPAVPVVVVDTQEAGIRLVHALLACAEAVQQENFAAAEALVKQIPTLAASQGGAMRKVAAYFGEALARRVYRFRPADSTLLDAAFADLLHAHFYESCPYLKFAHFTANQAILEAFAGCHRVHVVDFGIKQGMQWPALLQALALRPGGPPSFRLTGVGPPQPDETDALQQVGWKLAQFAHTIRVDFQYRGLVAATLADLEPFMLQPEGEADANEEPEVIAVNSVFELHRLLAQPGALEKVLGTVHAVRPRIVTVVEQEANHNSGSFLDRFTESLHYYSTMFDSLEGGSSGQAELSPPAAGGGGGTDQVMSEVYLGRQICNVVACEGAERTERHETLGQWRNRLGRAGFEPVHLGSNAYKQASTLLALFAGGDGYRVEEKEGCLTLGWHTRPLIATSAWRVAAA
Take B1: the binding result is given as “binds” in experiment [1]; “no binding” in experiment [2]; “binds” in experiment [3]; “binds” in experiment [4]; “binds” in [5]; “binds” in experiment [6].

B2: SLENDER RICE1 (SLR1) in YFN43 (BiFC) (protein, UniProt Q7G7J6 1-625)
chain: B1 chain
Take B2: the binding entry in experiment [7] was “binds”; in experiment [8] it was “no binding”; in experiment [9], “binds”; in experiment [10], “binds”; in experiment [11], “binds”; in [12], “binds”.

Source of the values: article PMC11549141.
